Some of the results follow.

This assay relates to PfSIP2 AP2 domain 1 (GST-tagged). The experiment in a line: gcPBM binding intensity (ln(normalized median fluorescence intensity)); higher = stronger DNA binding. A digest of the protocol: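 Binding intensity values are the highest Masliner-normalised natural-log median intensity among replicate spots of either probe orientation. The binding step lasted 1 h in 1× PBS with 1% milk, 0.2 mg/ml BSA, 0.5% salmon testes DNA and 0.03% Triton X-100, using GST-tagged P. falciparum DNA-binding domains expressed in E. coli on an Agilent 4 × 180k array of primer-extended double-stranded 36-bp intergenic genomic probes plus negative controls. Alexa488 anti-GST antibody and a 488 nm scan detected bound protein.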
Consider “AATAAATAAATAAGTACACACATATAAATATAAATA [CACACA_site6271]”, for which the “gcPBM binding intensity (ln)” value worked out at 7.18.

“TTCTACATGAAGTTATAAATTAATATTTTAATTTAT [XGTACX_negctrl_site134]”: the “gcPBM binding intensity (ln)” value is 6.58.

Regarding “TACTTTATTTTTTATACACACACAATATGTATATAT [CACACA_site9184]”, the “gcPBM binding intensity (ln)” value was 7.17.

“GTATTTCTTTAATATACACACACCAAAACAAAAAAA [CACACA_site579]”: the “gcPBM binding intensity (ln)” value stood at 7.19.

As for TAAGATATAAAAAATGTGCACATTAAAGTATTAATT, the “gcPBM binding intensity (ln)” value worked out at 8.15.

For the sequence “TGTTATTCTGCATATACACACAAATAACAATTTAAA [CACACA_site6943]”, the “gcPBM binding intensity (ln)” value is 7.24.

Turning to “TCTTATGATGGAATGTTAAATATTACATTTTGTTTA [TGCATGCA_negctrl_site503]”, the “gcPBM binding intensity (ln)” value came to 6.62.

For “TAATGTTTCAAAATTTAATATACTACAAATATTATA [TGCATGCA_negctrl_site336]”, the “gcPBM binding intensity (ln)” value was determined as 6.65.

For “ATGAACATCCAATATACACACATATATATTTATATT [CACACA_site829]”, the “gcPBM binding intensity (ln)” value was determined as 7.19.

On to “TTTATATAGAAACACACACACAAAAAAAAAAAAAAA [CACACA_site2646]”, for which the “gcPBM binding intensity (ln)” value worked out at 6.99.

Take “TTACAAAAAAAAAGGCGCGGATGGGGGCAATAGCAA [CACACA_negctrl_site238]”: the “gcPBM binding intensity (ln)” value turned out to be 7.2.

Take “CAAAAAAAAAAAAAAACACACATTAAATTATAAAGA [CACACA_site2613]”: the “gcPBM binding intensity (ln)” value came out at 6.77.

With “CACATATATACACATACACACACACCCATACACCCA [CACACA_site8505]”, the “gcPBM binding intensity (ln)” value was 7.35.

TTTACATTTTAGGAAGTGCATATAATAAATACTATC: the “gcPBM binding intensity (ln)” value is 9.07.

“TACATAAATACATACACACACATATAACCAATGTAG [CACACA_site5243]”: the “gcPBM binding intensity (ln)” value amounted to 7.18.

For “ATCACATTCCACGGTACACACTAAAAGAAAAATCAG [CACACA_site5907]”, the “gcPBM binding intensity (ln)” value was 7.39.

In the case of “ATTTATATTTAATATACACACATTATTTTTTTATAT [CACACA_site574]”, the “gcPBM binding intensity (ln)” value stood at 7.14.

On to “AGAGTACAAGTAAATACACACATATATATGAAAATA [CACACA_site1079]”, for which the “gcPBM binding intensity (ln)” value was 7.03.

As for “TATAATATGACAAGAAGTACATATATTTACATATAT [XGTACX_site1571]”, the “gcPBM binding intensity (ln)” value was 6.91.

For “CATTTCATTAATAAATGTACTTGTGAAGAGAAAAAG [XGTACX_site3115]”, the “gcPBM binding intensity (ln)” value was 7.17.

Consider “TATATGTGGGTTTTTTTTATGTGTTTTTCTTTTTTT [CACACA_negctrl_site936]”, for which the “gcPBM binding intensity (ln)” value was found to be 6.84.

Consider “AAAAGATAAAAAGAAGTGCATAATAGGAACAAATAT [GTGCAC_site9717]”, for which the “gcPBM binding intensity (ln)” value turned out to be 8.07.

In the case of “ACAAAATTTACAAAATGTACAAAATATACAAAATGT [XGTACX_site3543]”, the “gcPBM binding intensity (ln)” value is 6.88.

With “TATAAACGTATAATATGTACACACACATATATACAA [XGTACX_site1686]”, the “gcPBM binding intensity (ln)” value came out at 7.1.

As for “ATTATATAGAATTGTACATGCGAATTGTATAACGAT [TGCATGCA_site125]”, the “gcPBM binding intensity (ln)” value was determined as 7.14.

On to “AAAAAAAAAAAAAAAAATATATTTATGAAATAAAAA [TGCATGCA_negctrl_site262]”, for which the “gcPBM binding intensity (ln)” value amounted to 7.6.

Regarding “TATTTTTTTTTTTTTTTTTTTTTTATATATACATAT [CACACA_negctrl_site23]”, the “gcPBM binding intensity (ln)” value is 6.66.

As to “TTTCTATTCCATTCAACACACAAAAATGTATGCTTT [CACACA_site1072]”, the “gcPBM binding intensity (ln)” value was found to be 6.98.

Take “AATGGATATTTCTTTATATATATCTTATTTGATTAT [XGTACX_negctrl_site284]”: the “gcPBM binding intensity (ln)” value amounted to 6.77.

“TTTTTCTTTCTATTTATCAATATTAAAAAAAAAAAA [CACACA_negctrl_site1629]”: the “gcPBM binding intensity (ln)” value stood at 6.93.

Turning to “TTTTTTCAAATTTTCTTTTTTCTTTTGTTTTTTTTG [CACACA_negctrl_site380]”, the “gcPBM binding intensity (ln)” value turned out to be 6.33.

For the sequence “TATACATGTATATATTGTACATATGTTTTTTTTACA [XGTACX_site3300]”, the “gcPBM binding intensity (ln)” value was determined as 6.92.

Consider “TTACTCATGAAAGATACACACATTCGTTATTTATAT [CACACA_site7517]”, for which the “gcPBM binding intensity (ln)” value was found to be 6.97.

In the case of “TTTTTATAATGATACATATATTATTTTATTCTTAAT [CACACA_negctrl_site124]”, the “gcPBM binding intensity (ln)” value was 6.82.

Regarding “GAAGAAGTTTAAAAAGCACACAAAAAAAAAAAAAAA [CACACA_site9088]”, the “gcPBM binding intensity (ln)” value was found to be 6.9.

Consider “CACAAAATAAATTAAACACACAACATCATATATGTA [CACACA_site846]”, for which the “gcPBM binding intensity (ln)” value was 6.83.

Consider “TATTTATAAACATACGCACACATTAATATATATATA [CACACA_site9314]”, for which the “gcPBM binding intensity (ln)” value is 8.85.

In the case of “TAAATTATTATCCCCTCACACACAAAAATAAAAAGA [CACACA_site2886]”, the “gcPBM binding intensity (ln)” value came out at 7.67.

As to “CTTGTAGATATAAAATGTACAAAAATAAATTGCACA [XGTACX_site4409]”, the “gcPBM binding intensity (ln)” value worked out at 9.01.

As for ATTATTATTAATCTTGTGCACATATATTTTAATTAG, the “gcPBM binding intensity (ln)” value was 9.68.

As to “AGATATTCTACTATGTGTACATATATATATATAATT [XGTACX_site5060]”, the “gcPBM binding intensity (ln)” value is 7.18.

In the case of “AAATAAATACATAATACATGCATATTTAATATATAG [TGCATGCA_site135]”, the “gcPBM binding intensity (ln)” value amounted to 6.85.

Take “GTACAATCATATACTACATGCAGTTTTTTTTATTGA [TGCATGCA_site230]”: the “gcPBM binding intensity (ln)” value is 7.25.

Turning to “AATTTTTTTTAATGATGTACTTTTTGAAAATAAACT [XGTACX_site4221]”, the “gcPBM binding intensity (ln)” value came out at 7.1.

Consider “TTTTCTTTTTCTTGTACACACATAATATGGATGAAA [CACACA_site808]”, for which the “gcPBM binding intensity (ln)” value was found to be 7.14.

The record behind these values is the supplement of paper PMC11417369.
